Measurements reported in the supplement of paper PMC11741623.
Some of the results follow. Interaction screen of human proteins with wild-type SARS-CoV-2 proteins by split-DHFR complementation in yeast, 1 µg/mL methotrexate. Value = fitness of the pair (three or more lineages) minus that of the viral protein without a human partner, on a scale set by negative (0) and fused positive (1) controls, mean of up to three cultures; higher = more likely to interact. Active = false discovery rate below 0.05 (one-sided t-test) in at least one culture. Nearly all pairs are not hits, and differences among them are mostly noise (correlation between cultures about 0.3); most hits were seen in one culture only. Human sequences are the Swiss-Prot entries looked up by gene name; the clone may be another isoform. NSP2 values were corrected by the authors for a growth advantage. Listed are human proteins with a hit and a random twelfth of the others.

What was measured:
Assay in all cases: yeast fitness gain over the viral ORF with no human partner (scaled fitness); higher = more likely to interact
SARS-CoV-2 E = target: SARS-CoV-2 E
Experimental: (§1)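 Split mouse DHFR complementation in pooled diploid yeast: human ORFeome clones carry one fragment and viral ORFs the other; barcoded lineages compete in 1 µg/mL methotrexate and fitness is read by barcode sequencing in up to three cultures.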

SARS-CoV-2 M = target: SARS-CoV-2 M
Experimental: as §1

SARS-CoV-2 N = target: SARS-CoV-2 N
Experimental: as §1

SARS-CoV-2 NSP1 = target: SARS-CoV-2 NSP1
Experimental: as §1

SARS-CoV-2 NSP10 = target: SARS-CoV-2 NSP10
Experimental: as §1

SARS-CoV-2 NSP12 = target: SARS-CoV-2 NSP12
Experimental: as §1

SARS-CoV-2 NSP13 = target: SARS-CoV-2 NSP13
Experimental: as §1

SARS-CoV-2 NSP14 = target: SARS-CoV-2 NSP14
Experimental: as §1

SARS-CoV-2 NSP15 = target: SARS-CoV-2 NSP15
Experimental: as §1

SARS-CoV-2 NSP16 = target: SARS-CoV-2 NSP16
Experimental: as §1

SARS-CoV-2 NSP2 = target: SARS-CoV-2 NSP2
Experimental: as §1

SARS-CoV-2 NSP4 = target: SARS-CoV-2 NSP4
Experimental: as §1

SARS-CoV-2 NSP5 = target: SARS-CoV-2 NSP5
Experimental: as §1

SARS-CoV-2 NSP6 = target: SARS-CoV-2 NSP6
Experimental: as §1

SARS-CoV-2 NSP7 = target: SARS-CoV-2 NSP7
Experimental: as §1

SARS-CoV-2 NSP8 = target: SARS-CoV-2 NSP8
Experimental: as §1

SARS-CoV-2 NSP9 = target: SARS-CoV-2 NSP9
Experimental: as §1

SARS-CoV-2 ORF10 = target: SARS-CoV-2 ORF10
Experimental: as §1

SARS-CoV-2 ORF3A = target: SARS-CoV-2 ORF3A
Experimental: as §1

SARS-CoV-2 ORF3B = target: SARS-CoV-2 ORF3B
Experimental: as §1

SARS-CoV-2 ORF6 = target: SARS-CoV-2 ORF6
Experimental: as §1

SARS-CoV-2 ORF7A = target: SARS-CoV-2 ORF7A
Experimental: as §1

SARS-CoV-2 ORF7B = target: SARS-CoV-2 ORF7B
Experimental: as §1

SARS-CoV-2 ORF8 = target: SARS-CoV-2 ORF8
Experimental: as §1

SARS-CoV-2 ORF9B = target: SARS-CoV-2 ORF9B
Experimental: as §1

[1] = target: SARS-CoV-2 ORF9Bwu (the 73-codon ORF)
Experimental: as §1

SARS-CoV-2 S = target: SARS-CoV-2 S
Experimental: as §1

Measured: yeast fitness gain

B1: FAM82B, Q96DB5 (protein)
chain: MALAARLWRLLPFRRGAAPGSRLPAGTSGSRGHCGPCRFRGFEVMGNPGTFKRGLLLSALSYLGFETYQVISQAAVVHATAKVEEILEQADYLYESGETEKLYQLLTQYKESEDAELLWRLARASRDVAQLSRTSEEEKKLLVYEALEYAKRALEKNESSFASHKWYAICLSDVGDYEGIKAKIANAYIIKEHFEKAIELNPKDATSIHLMGIWCYTFAEMPWYQRRIAKMLFATPPSSTYEKALGYFHRAEQVDPNFYSKNLLLLGKTYLKLHNKKLAAFWLMKAKDYPAHTEEDKQIQTEAAQLLTSFSEKN
inactive: SARS-CoV-2 E 0.000935 | SARS-CoV-2 M 0.0661 | SARS-CoV-2 N 0.0642 | SARS-CoV-2 NSP1 = 0.0659 | SARS-CoV-2 NSP10 = -0.00361 | SARS-CoV-2 NSP12 = 0.00312 | SARS-CoV-2 NSP13 = 0.0406 | SARS-CoV-2 NSP14 = 0.061 | SARS-CoV-2 NSP15 = -0.035 | SARS-CoV-2 NSP16 = 0.0163 | SARS-CoV-2 NSP2 = -0.129 | SARS-CoV-2 NSP4 = 0.129 | SARS-CoV-2 NSP5 = -0.0136 | SARS-CoV-2 NSP6 = 0.034 | SARS-CoV-2 NSP7 = 0.0364 | SARS-CoV-2 NSP8 = 0.00778 | SARS-CoV-2 NSP9 = -0.186 | SARS-CoV-2 ORF10 = 0.0394 | SARS-CoV-2 ORF3A 0.0313 | SARS-CoV-2 ORF3B -0.0201 | SARS-CoV-2 ORF6 = -0.0134 | SARS-CoV-2 ORF7A 0.032 | SARS-CoV-2 ORF7B 0.0892 | SARS-CoV-2 ORF8 = 0.02 | SARS-CoV-2 ORF9B 0.0106 | [1] -0.0289 | SARS-CoV-2 S 0.0283

B2: CST6, Q15828 (protein)
chain: MARSNLPLALGLALVAFCLLALPRDARARPQERMVGELRDLSPDDPQVQKAAQAAVASYNMGSNSIYYFRDTHIIKAQSQLVAGIKYFLTMEMGSTDCRKTRVTGDHVDLTTCPLAAGAQQEKLRCDFEVLVVPWQNSSQLLKHNCVQM
inactive: SARS-CoV-2 E 0.0407 | SARS-CoV-2 M 0.063 | SARS-CoV-2 NSP1 = -0.0319 | SARS-CoV-2 NSP10 = 0.0334 | SARS-CoV-2 NSP12 = -0.0315 | SARS-CoV-2 NSP13 = 0.0102 | SARS-CoV-2 NSP16 = 0.0108 | SARS-CoV-2 NSP2 = -0.125 | SARS-CoV-2 NSP5 = 0.0476 | SARS-CoV-2 NSP6 = 0.062 | SARS-CoV-2 NSP7 = -0.0416 | SARS-CoV-2 NSP8 = -0.101 | SARS-CoV-2 NSP9 = 0.0298 | SARS-CoV-2 ORF10 = 0.0199 | SARS-CoV-2 ORF3A 0.0317 | SARS-CoV-2 ORF3B 0.04 | SARS-CoV-2 ORF6 = 0.0074 | SARS-CoV-2 ORF7A -0.0162 | SARS-CoV-2 ORF7B 0.00261 | SARS-CoV-2 ORF8 = 0.00215 | SARS-CoV-2 ORF9B 0.0227 | [1] 0.0846 | SARS-CoV-2 S 0.00457

B3: MRM1, Q6IN84 (protein)
chain: MALLSTVRGATWGRLVTRHFSHAARHGERPGGEELSRLLLDDLVPTSRLELLFGMTPCLLALQAARRSVARLLLQAGKAGLQGKRAELLRMAEARDIPVLRPRRQKLDTMCRYQVHQGVCMEVSPLRPRPWREAGEASPGDDPQQLWLVLDGIQDPRNFGAVLRSAHFLGVDKVITSRRNSCPLTPVVSKSSAGAMEVMDVFSTDDLTGFLQTKAQQGWLVAGTVGCPSTEDPQSSEIPIMSCLEFLWERPTLLVLGNEGSGLSQEVQASCQLLLTILPRRQLPPGLESLNVSVAAGILLHSICSQRKGFPTEGERRQLLQDPQEPSARSEGLSMAQHPGLSSGPEKERQNEG
active: SARS-CoV-2 NSP13 = 0.105
inactive: SARS-CoV-2 E -0.0483 | SARS-CoV-2 M -0.0363 | SARS-CoV-2 N 0.0365 | SARS-CoV-2 NSP1 = -0.0072 | SARS-CoV-2 NSP10 = 0.0962 | SARS-CoV-2 NSP12 = -0.00805 | SARS-CoV-2 NSP14 = -0.00206 | SARS-CoV-2 NSP15 = 0.00296 | SARS-CoV-2 NSP16 = 0.019 | SARS-CoV-2 NSP2 = -0.118 | SARS-CoV-2 NSP4 = -0.178 | SARS-CoV-2 NSP5 = 0.0721 | SARS-CoV-2 NSP6 = 0.0223 | SARS-CoV-2 NSP7 = -0.0514 | SARS-CoV-2 NSP8 = 0.0447 | SARS-CoV-2 NSP9 = 0.0792 | SARS-CoV-2 ORF10 = 0.0304 | SARS-CoV-2 ORF3A 0.0386 | SARS-CoV-2 ORF3B -0.0252 | SARS-CoV-2 ORF6 = 0.0551 | SARS-CoV-2 ORF7A -0.0061 | SARS-CoV-2 ORF7B 0.0263 | SARS-CoV-2 ORF8 = 0.0134 | SARS-CoV-2 ORF9B -0.00754 | [1] 0.054 | SARS-CoV-2 S -0.0127

B4: TSSK4, Q6SA08 (protein)
chain: MGKGDVLEAAPTTTAYHSLMDEYGYEVGKAIGHGSYGSVYEAFYTKQKVMVAVKIISKKKASDDYLNKFLPREIQVMKVLRHKYLINFYRAIESTSRVYIILELAQGGDVLEWIQRYGACSEPLAGKWFSQLTLGIAYLHSKSIVHRDLKLENLLLDKWENVKISDFGFAKMVPSNQPVGCSPSYRQVNCFSHLSQTYCGSFAYACPEILRGLPYNPFLSDTWSMGVILYTLVVAHLPFDDTNLKKLLRETQKEVTFPANHTISQECKNLILQMLRQATKRATILDIIKDSWVLKFQPEQPTHEIRLLEAMCQLHNTTKQHQSLQITT
inactive: SARS-CoV-2 E -0.00171 | SARS-CoV-2 M -0.0513 | SARS-CoV-2 N -0.428 | SARS-CoV-2 NSP1 = 0.000646 | SARS-CoV-2 NSP10 = 0.0159 | SARS-CoV-2 NSP12 = -0.0456 | SARS-CoV-2 NSP13 = 0.00586 | SARS-CoV-2 NSP14 = -0.0939 | SARS-CoV-2 NSP15 = -0.0328 | SARS-CoV-2 NSP16 = -0.061 | SARS-CoV-2 NSP2 = -0.107 | SARS-CoV-2 NSP5 = 0.0406 | SARS-CoV-2 NSP6 = 0.115 | SARS-CoV-2 NSP7 = 0.0656 | SARS-CoV-2 NSP8 = 0.0259 | SARS-CoV-2 NSP9 = -0.137 | SARS-CoV-2 ORF10 = -0.0592 | SARS-CoV-2 ORF3B 0.0637 | SARS-CoV-2 ORF6 = -0.00768 | SARS-CoV-2 ORF7A 0.0515 | SARS-CoV-2 ORF7B -0.0665 | SARS-CoV-2 ORF8 = 0.0474 | SARS-CoV-2 ORF9B -0.00424 | [1] -0.0134 | SARS-CoV-2 S -0.0102
